One compound from PubChem BioAssay AID1794770 (DTP/NCI, 2022) can be followed below.

The assay has as its system RXF-631 renal. Put plainly: NCI-60 one-dose screen, 48 h (100 = growth as untreated, 0 = no growth, -100 = all killed). Conditions: 2.5 mM. On the procedure:
Growth inhibition of the RXF-631 human tumor cell line is measured as a screen for anti-cancer activity. Cells are grown in 96 well plates and exposed to the test compound for 48 hours. Compounds are tested at a single concentration, which is 10^-5 M for most compounds. The reported endpoint is percent growth (GI% or GIPRCNT), where numbers from 0 - 100% represent growth inhibition, and numbers from -100% - 0 represent cell death. For example, a value of 40 represents 60% growth inhibition. A value of 0 means no net growth occurred over the course of the experiment. A value of -40 indicates 40% of cells at the beginning of the experiment died by the end of the experiment. A value of -100 means all cells are dead at the end of the experiment.
NCI-60 Human Tumor Cell Lines Screen was performed using the standard one-dose NCI protocol, which is described in more detail at https://dtp.cancer.gov/discovery_development/nci-60/default.htm.
Compounds with GIPRCNT values below 10 were considered active. Activity score was based on GIPRCNT using the following formula: […]
Score is 0 for GIPRCNT values of 100 or above, 50 for GIPRCNT values of 0, and 100 for GIPRCNT values of -100.

Molecules are shown by their SMILES.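 Testing used 96-well plates and a 48-hour single-concentration exposure. Example: -40 means 40% of the starting cells died.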 Certain results were filed several times, with different values. This list holds those alone. There may be further records. The screen tested this drug many times, at the concentration stated with the values; one value stands for one run.

On to `O=c1[nH]cc(F)c(=O)[nH]1`, for which the growth is, setting by setting: (runs of 1991) 14.2, 27.6, 30.7, 26, 20.7, 18.9, 27, 20.9, 11.7, 21.4, 35.4, 14.3, 14.1, 16.4, 22.7, 34.1%; (runs of 1992) 18.9, 17.7, 10.2, 8.42, 16.1, 15.1, 26.8, 11.8, 27.8, 16.7, 61.4, 18.2, 29.4, 10.4, 31.7, 29.2, 33.7, 14.4, 44.4, 14, -38.9, 13, 32.2, 13.9, 2.31, 6.07%.
